Several values for one entry are separate records, joined by “and”; a condition that tells them apart may be missing. Identical values can stand only once. Some of the results follow. The main result of the screen is listed elsewhere. These columns were measured beside it and carry no call.
Tests used:
Experiment in all cases: Primary Screen for Target Class Profiling of Small Molecule Inhibitors of Methyltransferases
[1] = target: Glycine N-methyltransferase (Homo sapiens) (UniProt Q14749); settings: purified enzyme, MTase-Glo SAH luminescence; measured here: GNMT inhibition; at 40 µM; stronger effect = lower value
Summary of the method: (§1)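 Each enzyme was assayed with SAM and its substrate. SAH formation detected by MTase-Glo luminescence; single-point 40 uM screen[…].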

[2] = target: Guanidinoacetate N-methyltransferase (Homo sapiens) (UniProt Q14353); settings: purified enzyme, MTase-Glo SAH luminescence; measured here: GAMT inhibition; at 40 µM; stronger effect = lower value
Summary of the method: as §1

[3] = target: Histamine N-methyltransferase (Homo sapiens) (UniProt P50135); settings: purified enzyme, MTase-Glo SAH luminescence; measured here: HNMT inhibition; at 40 µM; stronger effect = lower value
Summary of the method: as §1

[4] = target: Nicotinamide N-methyltransferase (Homo sapiens) (UniProt P40261); settings: purified enzyme, MTase-Glo SAH luminescence; measured here: NNMT inhibition; at 40 µM; stronger effect = lower value
Summary of the method: as §1

[5] = target: Phenylethanolamine N-methyltransferase (Homo sapiens) (UniProt P11086); settings: purified enzyme, MTase-Glo SAH luminescence; measured here: PNMT inhibition; at 40 µM; stronger effect = lower value
Summary of the method: as §1
On the % scale 0 is the no-effect control and ±100 the full control effect.

| Compound | activity change, negative = inhibition [1] | activity change, negative = inhibition [2] | activity change, negative = inhibition [3] | activity change, negative = inhibition [4] | activity change, negative = inhibition [5] |
| --- | --- | --- | --- | --- | --- |
| Cc1ccccc1CN1C(=O)c2ccc(-c3ccccc3)n2CC1(C)C(=O)NC1CCC(C)CC1 (stereo not given) | 6.1% | 0.122% | 2.13% | 3.56% | 2.2% |
| O=C(OCc1ccccc1)N1CCOCC12CCN(Cc1c[nH]c3ccccc13)CC2 | -9.24% | -4.92% | -57.8% | -18.4% | -13.1% |
| Cc1c(Cl)cccc1N1C(=O)c2cc3sccc3n2CC1(C)C(=O)NC1CCCCC1 (stereo not given) | 2.2% | 0% | 3.69% | 2.49% | 1.24% |
| Cc1cc2[nH]c(=O)[nH]c2cc1S(=O)(=O)N1CCN(c2cccc(Cl)c2)CC1 | 1.66% | 1.29% | 7.38% | -7.73% | 4.32% |
| N#C/C(=C\c1ccc(O)c(O)c1)C(=O)NCCc1ccccc1 | -12.5% | 7.88% | 0.169% | -41.8% | 8.67% |
| CC1[C@@H](O)[C@@H](O)C2[C@]3(C)C(C[C@H]4OC(=O)[C@H](O)[C@]1(O)[C@@]24C)C(C)(O)C[C@H](O)[C@H]3O (stereo not given in full) | 1.41% | 16.3% | 12% | 4.09% | 7.61% |
| COc1ccc(CCc2nc3nccc(-c4ccncc4)n3n2)cc1 | -14.9% | -12.6% | -6.12% | -16% | -9.22% |
| CCCn1c(=O)c2ccc(C(=O)NCC(C)C)cc2n2c(=O)n(CC(=O)Nc3cc(C)cc(C)c3)nc12 | 0.053% | 4.6% | -0.346% | -0.631% | 1.98% |
| Cc1cccc(CN2CCCC(C(=O)Nc3cccc(-n4cccn4)c3)C2)n1 (stereo not given) | -5.19% | 0.267% | -3.7% | 0.533% | 3.46% |
| COc1ccc(S(=O)(=O)NC[C@H]2Cn3c(-c4ccc(Cl)cc4)cnc3CO2)cc1 | -72.5% | -15.3% | -27.7% | -33.1% | -10.8% |
| CCNC(=O)O[C@H]1COCCN(c2nc3ccccc3o2)C1 | -2.1% | 0.764% | -1.04% | -5.16% | -0.018% |
| O=c1cc(-c2ccccc2)[nH]c2nc(Cl)ccc12 | -3.57% | 3.6% | 0.376% | -6.05% | 5.34% |
| CC(=O)N1CCC(C(=O)N2CCCC(c3nc4ncccc4[nH]3)C2)CC1 (stereo not given) | 1.78% | -3.11% | 1.59% | -3.84% | -13.7% |
| O=c1[nH]c(=O)c2nc3ccccc3nc2[nH]1 | -9.88% | 5.17% | -0.265% | -3.33% | 7.13% |
| O=C(CCn1cncn1)N1CCC2(CCC(=O)N(CCc3ccncc3)C2)CC1 | -0.995% | -2.43% | -0.713% | -2.23% | -0.793% |
| COc1c(F)cccc1C(=O)N1C[C@@H](C)CC[C@H]1CNc1ccc(Br)cn1 | 0.411% | 7.09% | 9.96% | -12.7% | -1.66% |
| O=C(COC(=O)C(Cc1c[nH]c2ccccc12)NC(=O)c1ccc(Br)cc1)c1ccccc1 (stereo not given) | 10.8% | 0% | 8.59% | -4.31% | 3.25% |
| CCCCNc1nc2c(-c3cccc(Br)c3)nnn2c2ccccc12 | -0.349% | 2.79% | 2.19% | 6.22% | -3.64% |
| COc1ccc(CNC(=O)CN(C)S(=O)(=O)c2ccc3[nH]c4c(c3c2)CCCC4)cc1 | -1.22% | 0.253% | -2.64% | -6.47% | 0.53% |

| Compound | activity change, negative = inhibition [1] | activity change, negative = inhibition [2] | activity change, negative = inhibition [3] | activity change, negative = inhibition [4] | activity change, negative = inhibition [5] |
| --- | --- | --- | --- | --- | --- |
| CC(=O)O[C@H]1C[C@@]2(C)[C@@H](C[C@@H](O)[C@H]3[C@@]4(C)CC[C@@H](O)[C@@H](C)[C@@H]4CC[C@@]32C)/C1=C(\CCC=C(C)C)C(=O)O | 1.54% | 1.53% | 13.4% | -9.84% | 4.35% |
| O=C1CC(c2noc(Cc3ccc(F)cc3)n2)CN1c1ccc(F)cc1 (stereo not given) | -1.55% | 1.57% | 2.62% | -3.83% | 10.5% |
| COc1ccc(CNc2cc3c(cn2)CN(C)CCN3)cc1OC | -7.65% | -6.07% | -89.3% | -20.1% | -8.76% |
| O=C(CCc1c[nH]c2ccccc12)NC1CCN(c2ccc(=O)[nH]n2)CC1 | -3.04% | -0.43% | -1.97% | -6.87% | -14% |
| COc1ccc(OC)c2c1cc1n2CC(C)(C(=O)NC2CCCCC2)N(Cc2ccccn2)C1=O (stereo not given) | -31.4% | -8.7% | -1.42% | -8.39% | -78.8% |
| O=C(Nc1ccc(S(=O)(=O)C(F)(F)F)cc1)C1=CCN(c2ncccc2C(F)(F)F)CC1 | -1.17% | -7.57% | -3.78% | -19.7% | -14.4% |
| CC1(C)CC[C@]2(C(=O)O[C@@H]3O[C@H](CO)[C@@H](O)[C@H](O)[C@H]3O)CC[C@]3(C)C(=CCC4[C@@]5(C)CC[C@H](OC6OC(C(=O)O)C(OC7OC(CO)C(O)C(O)C7O)C(O)C6O)C(C)(C)C5CC[C@]43C)C2C1 (stereo not given in full) | 2.81% | 6.16% | 8.95% | -9.35% | -5.01% |
| Cc1ccc(NC(=O)c2ncn3c2C(=O)N(C2CC2)C(C)(C(=O)NC2CCCC2)C3)c(Cl)c1 (stereo not given) | -0.344% | 0% | 8.1% | -0.406% | 2.71% |
| COc1ccc(Sc2ccc(NC(=O)c3ccccc3Cl)cc2C#N)cc1 | 1.5% | -1.56% | 7.37% | -12.4% | 1.19% |
| CC(=O)N[C@@H](CS)C(=O)O | 3.62% | -3.8% | 5.5% | -13.7% | -7.68% |
| CCCn1c(=O)c2ccc(Cl)cc2n2c(=O)n(CC(=O)Nc3ccc(CC)cc3)nc12 | 0.201% | 1.56% | 3.01% | -2.96% | -1.77% |
| COc1ccc(CCNC(=O)c2cc3n(n2)CC(C)(C(=O)NC2CCCCC2)N(C)C3=O)cc1OC (stereo not given) | -7.25% | 5.07% | -2.51% | -0.85% | 1.47% |
| COCCN(C)C[C@@H]1CN(C(=O)c2ccc(Cl)s2)C[C@@H]1CO | -6.8% | -5.95% | -10.4% | -6.79% | -7.83% |
| Cc1ccc(C2c3cccn3-c3sc4c(c3CN2C(=O)Nc2ccc(F)cc2)CCCC4)cc1 (stereo not given) | -5.33% | -11.1% | 1.3% | -5.47% | -1.34% |
| O=C(NC[C@H]1OC[C@@H](N(Cc2cnc[nH]2)Cc2cnc[nH]2)[C@@H]1O)C1CCCC1 | 0.067% | 1% | 1.78% | 0.462% | 2% |
| Nc1c(NC/C=C\COc2cc(CN3CCCCC3)ccn2)c(=O)c1=O | -3.61% | 6.95% | -69.6% | -24.2% | -13% |
| C[C@]1(c2nc3c(C(N)=O)cccc3[nH]2)CCCN1 | -0.647% | 2.89% | 7.57% | 0.614% and -14.7% | 17% and 2.34% |
| Cc1nc(C(C)C)sc1C(=O)N1C[C@@H](C)[C@](O)(C2CCC2)C1 | -2.84% | -4.3% | -2.43% | -6.46% | -2.63% |
| CCOc1ccccc1CN1C(=O)c2cc3ccccc3n2CC1(C)C(=O)NC1CCCCC1 (stereo not given) | -2.23% | 2.45% | -2.52% | 4.28% | -1.42% |
